The other results are listed elsewhere or left out. Rule as the data show it: active = 3.2 or more and inactive = the rest. Most of these values are background signal.
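Also: displayed peptides selected on beads carrying the immobilized SH2 domain, with library peptides lacking any tyrosine serving as negative controls.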

The target of one assay is SHP2 C-SH2 domain E139D. The assay is described as follows: enrichment score (SH2-bound / input frequency) (ratio); bacterial display of known human phosphotyrosine sites (pTyr-Var adds point mutants) read by sequencing; higher = stronger binding; tyrosines were phosphorylated by kinases first. The following applies: peptide library: Human pTyr.
MTEEQKKYANAMKKL [SCN5A_HUMAN_1494_YA]: the enrichment score was inactive: 1.1.

For NSKCSSVYENCLEQS [SHC4_HUMAN_424], the enrichment score was inactive: 0.77.

For the molecule DGSDHPYYNSIPSKM [SHC3_HUMAN_342], the enrichment score was inactive: 0.604.

As for SPKREVLYDSEGLSG [SFR19_HUMAN_732], the enrichment score is inactive: 0.856.

For the molecule TIHGDLAYEGKEFET [SF3B2_HUMAN_592_YA], the enrichment score was inactive: 0.846.

Consider KKNRIAIYELLFKEG [RS10_HUMAN_12], for which the enrichment score was inactive: 2.33.

Regarding YIEPEDDYDDVEIPA [SCIMP_HUMAN_131], the enrichment score was inactive: 1.1.

Regarding IITLKDVYDDGKYVY [RPS6KA3_HUMAN_483], the enrichment score was inactive: 0.983.

On to NAEKILGYLNTNVLS [S6A17_HUMAN_377], for which the enrichment score was inactive: 0.936.

In the case of ESYTHIQYLFEQESF [SH2D3_HUMAN_283], the enrichment score is inactive: 2.25.

As for KAENAELYSVELGPG [ATP4A_HUMAN_10_YA], the enrichment score was inactive: 0.779.

Take VPDYPPNYILFLNNL [RU2B_HUMAN_151]: the enrichment score is inactive: 1.47.

With VPDAPPNYILFLNNL [RU2B_HUMAN_151_YA], the enrichment score was inactive: 1.34.

With KFSLSGGYWNSVSDT [RPS6KA3_HUMAN_644], the enrichment score was inactive: 1.58.

In the case of KQSDDEVYAPGLDIE [SF3A1_HUMAN_456], the enrichment score was inactive: 0.962.

As for EENRTGMYVATLAGS [SC6A7_HUMAN_591], the enrichment score is inactive: 0.531.

Regarding DTDQLKLYEEPLSKL [ATR_HUMAN_291], the enrichment score was inactive: 0.725.

FPFEAEAYRNIEPVY [ATR_HUMAN_310]: the enrichment score was inactive: 0.723.

The next assay has as its target SHP2 C-SH2 domain wild-type. Described as above. The following applies: peptide library: Human pTyr.
In the case of MTEEQKKYANAMKKL [SCN5A_HUMAN_1494_YA], the enrichment score is inactive: 0.82.

In the case of NSKCSSVYENCLEQS [SHC4_HUMAN_424], the enrichment score is inactive: 0.715.

Take DGSDHPYYNSIPSKM [SHC3_HUMAN_342]: the enrichment score was inactive: 0.546.

In the case of SPKREVLYDSEGLSG [SFR19_HUMAN_732], the enrichment score is inactive: 0.692.

TIHGDLAYEGKEFET [SF3B2_HUMAN_592_YA]: the enrichment score was inactive: 0.533.

Take KKNRIAIYELLFKEG [RS10_HUMAN_12]: the enrichment score was inactive: 2.28.

Consider YIEPEDDYDDVEIPA [SCIMP_HUMAN_131], for which the enrichment score is inactive: 1.21.

In the case of IITLKDVYDDGKYVY [RPS6KA3_HUMAN_483], the enrichment score is inactive: 1.28.

NAEKILGYLNTNVLS [S6A17_HUMAN_377]: the enrichment score is inactive: 0.79.

With ESYTHIQYLFEQESF [SH2D3_HUMAN_283], the enrichment score is inactive: 2.48.

On to KAENAELYSVELGPG [ATP4A_HUMAN_10_YA], for which the enrichment score is inactive: 0.542.

With VPDYPPNYILFLNNL [RU2B_HUMAN_151], the enrichment score was inactive: 1.38.

In the case of VPDAPPNYILFLNNL [RU2B_HUMAN_151_YA], the enrichment score is inactive: 1.22.

As to KFSLSGGYWNSVSDT [RPS6KA3_HUMAN_644], the enrichment score is inactive: 1.16.

Consider KQSDDEVYAPGLDIE [SF3A1_HUMAN_456], for which the enrichment score was inactive: 1.07.

Turning to EENRTGMYVATLAGS [SC6A7_HUMAN_591], the enrichment score was inactive: 0.45.

For the molecule DTDQLKLYEEPLSKL [ATR_HUMAN_291], the enrichment score is inactive: 0.734.

As to FPFEAEAYRNIEPVY [ATR_HUMAN_310], the enrichment score was inactive: 0.568.

A further assay addresses SHP2 N-SH2 domain L43F. Described as above. The following applies: peptide library: Human pTyr.
Consider MTEEQKKYANAMKKL [SCN5A_HUMAN_1494_YA], for which the enrichment score is inactive: 0.816.

For NSKCSSVYENCLEQS [SHC4_HUMAN_424], the enrichment score is inactive: 0.635.

DGSDHPYYNSIPSKM [SHC3_HUMAN_342]: the enrichment score is inactive: 0.766.

With SPKREVLYDSEGLSG [SFR19_HUMAN_732], the enrichment score is inactive: 0.702.

Turning to TIHGDLAYEGKEFET [SF3B2_HUMAN_592_YA], the enrichment score was inactive: 0.699.

With KKNRIAIYELLFKEG [RS10_HUMAN_12], the enrichment score is inactive: 2.72.

YIEPEDDYDDVEIPA [SCIMP_HUMAN_131]: the enrichment score was inactive: 1.43.

On to IITLKDVYDDGKYVY [RPS6KA3_HUMAN_483], for which the enrichment score was inactive: 1.14.

Regarding NAEKILGYLNTNVLS [S6A17_HUMAN_377], the enrichment score was inactive: 0.885.

Regarding ESYTHIQYLFEQESF [SH2D3_HUMAN_283], the enrichment score was inactive: 1.98.

Take KAENAELYSVELGPG [ATP4A_HUMAN_10_YA]: the enrichment score is inactive: 0.456.

Consider VPDYPPNYILFLNNL [RU2B_HUMAN_151], for which the enrichment score was inactive: 1.46.

With VPDAPPNYILFLNNL [RU2B_HUMAN_151_YA], the enrichment score is inactive: 1.17.

Take KFSLSGGYWNSVSDT [RPS6KA3_HUMAN_644]: the enrichment score was inactive: 1.51.

Take KQSDDEVYAPGLDIE [SF3A1_HUMAN_456]: the enrichment score was inactive: 1.36.

Take EENRTGMYVATLAGS [SC6A7_HUMAN_591]: the enrichment score was inactive: 0.617.

For the molecule DTDQLKLYEEPLSKL [ATR_HUMAN_291], the enrichment score is inactive: 0.715.

In the case of FPFEAEAYRNIEPVY [ATR_HUMAN_310], the enrichment score was inactive: 0.599.

The next assay has as its target SHP2 N-SH2 domain T42A. Described as above. The following applies: peptide library: Human pTyr.
MTEEQKKYANAMKKL [SCN5A_HUMAN_1494_YA]: the enrichment score is inactive: 1.09.

For the molecule NSKCSSVYENCLEQS [SHC4_HUMAN_424], the enrichment score is inactive: 0.722.

For DGSDHPYYNSIPSKM [SHC3_HUMAN_342], the enrichment score was inactive: 0.612.

As for SPKREVLYDSEGLSG [SFR19_HUMAN_732], the enrichment score was inactive: 0.768.

As to TIHGDLAYEGKEFET [SF3B2_HUMAN_592_YA], the enrichment score was inactive: 0.495.

Turning to KKNRIAIYELLFKEG [RS10_HUMAN_12], the enrichment score is inactive: 2.21.

For the molecule YIEPEDDYDDVEIPA [SCIMP_HUMAN_131], the enrichment score is inactive: 0.848.

Regarding IITLKDVYDDGKYVY [RPS6KA3_HUMAN_483], the enrichment score was inactive: 0.923.

Turning to NAEKILGYLNTNVLS [S6A17_HUMAN_377], the enrichment score is inactive: 0.824.

Consider ESYTHIQYLFEQESF [SH2D3_HUMAN_283], for which the enrichment score was inactive: 1.93.

As for KAENAELYSVELGPG [ATP4A_HUMAN_10_YA], the enrichment score was inactive: 0.603.

With VPDYPPNYILFLNNL [RU2B_HUMAN_151], the enrichment score was inactive: 1.35.

On to VPDAPPNYILFLNNL [RU2B_HUMAN_151_YA], for which the enrichment score is inactive: 1.22.

On to KFSLSGGYWNSVSDT [RPS6KA3_HUMAN_644], for which the enrichment score was inactive: 1.2.

As for KQSDDEVYAPGLDIE [SF3A1_HUMAN_456], the enrichment score is inactive: 1.03.

Consider EENRTGMYVATLAGS [SC6A7_HUMAN_591], for which the enrichment score was inactive: 0.53.

As to DTDQLKLYEEPLSKL [ATR_HUMAN_291], the enrichment score was inactive: 0.696.

Consider FPFEAEAYRNIEPVY [ATR_HUMAN_310], for which the enrichment score is inactive: 0.563.

The next assay addresses SHP2 N-SH2 domain T52S. The assay is described as above. The following applies: peptide library: Human pTyr.
For MTEEQKKYANAMKKL [SCN5A_HUMAN_1494_YA], the enrichment score is inactive: 0.792.

For NSKCSSVYENCLEQS [SHC4_HUMAN_424], the enrichment score was inactive: 0.723.

As to DGSDHPYYNSIPSKM [SHC3_HUMAN_342], the enrichment score was inactive: 1.03.

For the molecule SPKREVLYDSEGLSG [SFR19_HUMAN_732], the enrichment score is inactive: 0.81.

In the case of TIHGDLAYEGKEFET [SF3B2_HUMAN_592_YA], the enrichment score is inactive: 0.628.

Turning to KKNRIAIYELLFKEG [RS10_HUMAN_12], the enrichment score is inactive: 2.56.

Regarding YIEPEDDYDDVEIPA [SCIMP_HUMAN_131], the enrichment score was inactive: 1.25.

For the molecule IITLKDVYDDGKYVY [RPS6KA3_HUMAN_483], the enrichment score is inactive: 0.979.

Regarding NAEKILGYLNTNVLS [S6A17_HUMAN_377], the enrichment score is inactive: 0.787.

In the case of ESYTHIQYLFEQESF [SH2D3_HUMAN_283], the enrichment score is inactive: 2.14.

On to KAENAELYSVELGPG [ATP4A_HUMAN_10_YA], for which the enrichment score is inactive: 0.772.

On to VPDYPPNYILFLNNL [RU2B_HUMAN_151], for which the enrichment score was inactive: 1.34.

Regarding VPDAPPNYILFLNNL [RU2B_HUMAN_151_YA], the enrichment score is inactive: 1.3.

In the case of KFSLSGGYWNSVSDT [RPS6KA3_HUMAN_644], the enrichment score was inactive: 1.37.

On to KQSDDEVYAPGLDIE [SF3A1_HUMAN_456], for which the enrichment score is inactive: 1.15.

On to EENRTGMYVATLAGS [SC6A7_HUMAN_591], for which the enrichment score was inactive: 0.605.

As to DTDQLKLYEEPLSKL [ATR_HUMAN_291], the enrichment score was inactive: 0.815.

Consider FPFEAEAYRNIEPVY [ATR_HUMAN_310], for which the enrichment score was inactive: 0.742.

The next assay concerns the target SHP2 N-SH2 domain wild-type. The description is as above. The following applies: peptide library: Human pTyr.
Regarding MTEEQKKYANAMKKL [SCN5A_HUMAN_1494_YA], the enrichment score was inactive: 0.889.

NSKCSSVYENCLEQS [SHC4_HUMAN_424]: the enrichment score is inactive: 0.727.

On to DGSDHPYYNSIPSKM [SHC3_HUMAN_342], for which the enrichment score is inactive: 0.913.

As to SPKREVLYDSEGLSG [SFR19_HUMAN_732], the enrichment score was inactive: 0.898.

With TIHGDLAYEGKEFET [SF3B2_HUMAN_592_YA], the enrichment score was inactive: 0.53.

In the case of KKNRIAIYELLFKEG [RS10_HUMAN_12], the enrichment score is active: 3.49.

For YIEPEDDYDDVEIPA [SCIMP_HUMAN_131], the enrichment score was inactive: 1.81.

Turning to IITLKDVYDDGKYVY [RPS6KA3_HUMAN_483], the enrichment score was inactive: 0.97.

Consider NAEKILGYLNTNVLS [S6A17_HUMAN_377], for which the enrichment score was inactive: 0.767.

ESYTHIQYLFEQESF [SH2D3_HUMAN_283]: the enrichment score is inactive: 2.97.

As for KAENAELYSVELGPG [ATP4A_HUMAN_10_YA], the enrichment score is inactive: 0.667.

Regarding VPDYPPNYILFLNNL [RU2B_HUMAN_151], the enrichment score is inactive: 1.65.

For the molecule VPDAPPNYILFLNNL [RU2B_HUMAN_151_YA], the enrichment score is inactive: 1.3.

As to KFSLSGGYWNSVSDT [RPS6KA3_HUMAN_644], the enrichment score is inactive: 1.72.

In the case of KQSDDEVYAPGLDIE [SF3A1_HUMAN_456], the enrichment score was inactive: 1.12.

In the case of EENRTGMYVATLAGS [SC6A7_HUMAN_591], the enrichment score is inactive: 0.48.

With DTDQLKLYEEPLSKL [ATR_HUMAN_291], the enrichment score was inactive: 0.811.

Take FPFEAEAYRNIEPVY [ATR_HUMAN_310]: the enrichment score is inactive: 0.595.

The values above are taken from the supplement of paper PMC10369915.
